The experiment concerns A673/TR/shEF. Nature of the experiment: cell viability (LOESS-normalised, relative to median of negative controls) (log2 ratio); higher = more viable cells (less compound effect), active = hit call of the paper (over 3 MAD below the median). The following applies: treatment time: 72 h. The method, boiled down: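 For three days, A673/TR/shEF Ewing sarcoma cells in 384-well plates (1,500 per well) were treated with library compounds at two or more concentrations or with DMSO controls, after doxycycline had been added or withheld 24 h beforehand to induce EWS-FLI1 shRNA knockdown. Viability was read by CellTiter-Glo luminescence on an Envision reader. The data were LOESS-corrected per plate, divided by the median of negative controls and log2-transformed.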

[1] abbreviates: 0.103 µM, library screen: screen3, EWS-FLI1 expression: high (no doxycycline).
Setting [2] is: 0.103 µM, library screen: screen3, EWS-FLI1 expression: low (doxycycline-induced shRNA knockdown).
Where [3] appears, read: 0.308 µM, library screen: screen3, EWS-FLI1 expression: high (no doxycycline).
Where [4] appears, read: 0.308 µM, library screen: screen3, EWS-FLI1 expression: low (doxycycline-induced shRNA knockdown).
[5] abbreviates: 0.926 µM, library screen: screen3, EWS-FLI1 expression: high (no doxycycline).
[6] abbreviates: 0.926 µM, library screen: screen3, EWS-FLI1 expression: low (doxycycline-induced shRNA knockdown).
The mark [7] stands for this setting: 2.8 µM, library screen: screen3, EWS-FLI1 expression: high (no doxycycline).
Setting [8] is: 2.8 µM, library screen: screen3, EWS-FLI1 expression: low (doxycycline-induced shRNA knockdown).
[9] abbreviates: 8.3 µM, library screen: screen3, EWS-FLI1 expression: high (no doxycycline).
[10] abbreviates: 8.3 µM, library screen: screen3, EWS-FLI1 expression: low (doxycycline-induced shRNA knockdown).
Setting [11] is: 25 µM, library screen: screen3, EWS-FLI1 expression: high (no doxycycline).
The mark [12] stands for this setting: 25 µM, library screen: screen3, EWS-FLI1 expression: low (doxycycline-induced shRNA knockdown).
[13] abbreviates: 0.25 µM, library screen: screen2, EWS-FLI1 expression: high (no doxycycline).
Where [14] appears, read: 0.25 µM, library screen: screen2, EWS-FLI1 expression: low (doxycycline-induced shRNA knockdown).
Where [15] appears, read: 2.5 µM, library screen: screen2, EWS-FLI1 expression: high (no doxycycline).
Setting [16] is: 2.5 µM, library screen: screen2, EWS-FLI1 expression: low (doxycycline-induced shRNA knockdown).
Setting [17] is: 0.25 µM, library screen: screen1, EWS-FLI1 expression: high (no doxycycline).
[18] abbreviates: 0.25 µM, library screen: screen1, EWS-FLI1 expression: low (doxycycline-induced shRNA knockdown).
The mark [19] stands for this setting: 2.5 µM, library screen: screen1, EWS-FLI1 expression: high (no doxycycline).
[20] abbreviates: 2.5 µM, library screen: screen1, EWS-FLI1 expression: low (doxycycline-induced shRNA knockdown).

About 300 (9.4%) of roughly 3,200 compounds showed activity. The entries are a selection whose mix differs from that of the whole data set.

Here are results for 20 compounds from the supplement of paper PMC6089552.

In the case of `COc1cc2c(cc1Cc1cccc(Cl)c1F)c(=O)c(C(=O)O)cn2[C@H](CO)C(C)C`, the “cell viability (log2)” value by setting is: under setting [1], inactive: 0.05; under setting [2], inactive: -0.00255; under setting [3], inactive: 0.102; under setting [4], inactive: 0.0944; under setting [5], inactive: 0.115; under setting [6], inactive: 0.0617. Further, the “cell viability (log2)” value runs as follows: under setting [7], inactive: 0.0282; under setting [8], inactive: 0.1; under setting [9], inactive: 0.113; under setting [10], inactive: 0.0151; under setting [11], inactive: 0.139; under setting [12], inactive: 0.0149.
Consider `CC[C@@H]1Cc2cc(O)ccc2C2=C1c1ccc(O)cc1C[C@H]2CC`, for which the “cell viability (log2)” value is inactive: 0.16 under setting [13], inactive: 0.136 under setting [14], inactive: 0.141 under setting [15] and inactive: 0.0955 under setting [16].
In the case of `COC(=O)C[C@H]1C(C)(C)C(=O)[C@@H]2CC3C4=CC(=O)O[C@@H](c5ccoc5)[C@]4(C)CC[C@@H]3[C@@]1(C)C2=O` (some centres undefined), the “cell viability (log2)” value is, setting by setting: under setting [17], inactive: 0.00456; under setting [18], inactive: 0.0839; under setting [19], inactive: 0.0543; under setting [20], inactive: 0.0477.
`CC(C)=CC1C(C(=O)O)C1(C)C` (centres undefined): the “cell viability (log2)” value was inactive: 0.103 under setting [17], inactive: 0.017 under setting [18], inactive: 0.143 under setting [19] and inactive: 0.0923 under setting [20].
As to `OCC(S)CS` (centres undefined), the “cell viability (log2)” value was inactive: 0.132 under setting [17], inactive: 0.234 under setting [18], inactive: 0.179 under setting [19] and inactive: 0.329 under setting [20].
As to `Oc1ccc2c(c1)O[C@H](c1ccc(O)c(O)c1)[C@@H](O)C2`, the “cell viability (log2)” value under setting [17] was inactive: 0.0741, the “cell viability (log2)” value under setting [18] was inactive: -0.0244, the “cell viability (log2)” value under setting [19] was inactive: 0.0985 and the “cell viability (log2)” value under setting [20] is inactive: 0.085.
Taken in the same sequence, the figures for `O=C1C(O)=C(O)C(=O)C(O)=C1O` were inactive: 0.0591, inactive: 0.14, inactive: 0.183 and inactive: 0.124.
Regarding `CC(=O)NC[C@H]1CN(c2ccc(N3CCOCC3)c(F)c2)C(=O)O1`, the “cell viability (log2)” value runs as follows: under setting [1], inactive: -0.04; under setting [2], inactive: 0.0645; under setting [3], inactive: 0.0945; under setting [4], inactive: 0.0943; under setting [5], inactive: 0.103; under setting [6], inactive: 0.0601. For the same compound, the “cell viability (log2)” value is, setting by setting: under setting [7], inactive: 0.0216; under setting [8], inactive: 0.0958; under setting [9], inactive: -0.0023; under setting [10], inactive: 0.0557; under setting [11], inactive: 0.0639; under setting [12], inactive: 0.105.
Take `CCSC(N)=Nc1ccc(C(F)(F)F)cc1`: the “cell viability (log2)” value reads like this: under setting [13], inactive: 0.167; under setting [14], inactive: 0.0677; under setting [15], inactive: 0.236; under setting [16], inactive: 0.0895.
With `COC(=O)C[C@H]1C(C)(C)C(=O)[C@@H]2C[C@@]3(O)C4=CC(=O)O[C@@H](c5ccoc5)[C@]4(C)CCC3[C@@]1(C)C2=O` (some centres undefined), the “cell viability (log2)” value reads like this: under setting [17], inactive: 0.0813; under setting [18], inactive: 0.00839; under setting [19], inactive: 0.172; under setting [20], inactive: 0.118.
Taken in the same sequence, the figures for `COc1ccc2c(c1)c(CC(=O)OCC(=O)O)c(C)n2C(=O)c1ccc(Cl)cc1` were inactive: 0.202, inactive: -0.0162, inactive: 0.26 and inactive: 0.193.
`Cc1cccc(C2CN(C)CCc3c2cc(O)c(O)c3Cl)c1` (centres undefined): the “cell viability (log2)” value reads like this: under setting [13], inactive: 0.19; under setting [14], inactive: 0.0719; under setting [15], inactive: 0.0548; under setting [16], inactive: 0.000981.
Consider `Cc1c(C)c2c(c(C)c1O)CCC(C)(CCCC(C)CCCC(C)CCCC(C)C)O2` (centres undefined), for which the “cell viability (log2)” value was inactive: 0.0599 under setting [17], inactive: 0.175 under setting [18], inactive: 0.133 under setting [19] and inactive: 0.306 under setting [20].
On to `CC(=O)O[C@]1(C(C)=O)CC[C@H]2[C@@H]3C=C(C)C4=CC(=O)CC[C@]4(C)[C@H]3CC[C@@]21C`, for which the “cell viability (log2)” value is inactive: 0.048 under setting [1]; inactive: 0.0501 under setting [2]; inactive: 0.0173 under setting [3]; inactive: 0.0399 under setting [4]; inactive: 0.115 under setting [5]; inactive: 0.0982 under setting [6]. Further, the “cell viability (log2)” value runs as follows: under setting [7], inactive: 0.11; under setting [8], inactive: 0.092; under setting [9], inactive: 0.0652; under setting [10], inactive: 0.121; under setting [11], inactive: 0.113; under setting [12], inactive: 0.0251.
`C=CC(C)(O)CCC=C(C)C` (centres undefined): the “cell viability (log2)” value was inactive: 0.109 under setting [17], inactive: 0.0913 under setting [18], inactive: 0.135 under setting [19] and inactive: 0.115 under setting [20].
On to `Nc1nnc(-c2cccc(Cl)c2Cl)c(N)n1`, for which the “cell viability (log2)” value under setting [13] is inactive: 0.146, the “cell viability (log2)” value under setting [14] was inactive: 0.137, the “cell viability (log2)” value under setting [15] is inactive: 0.218 and the “cell viability (log2)” value under setting [16] is inactive: 0.113.
Turning to `Cc1cc(Nc2cc(CN3CCOCC3)c3nc(C)c(Cc4ccc(Cl)cc4F)n3n2)n[nH]1`, the “cell viability (log2)” value under setting [1] is inactive: 0.0112; the “cell viability (log2)” value under setting [2] is inactive: 0.0393; the “cell viability (log2)” value under setting [3] is inactive: -0.00623; the “cell viability (log2)” value under setting [4] was inactive: -0.00356; the “cell viability (log2)” value under setting [5] is inactive: -0.0578; the “cell viability (log2)” value under setting [6] was inactive: 0.0432. Further, the “cell viability (log2)” value reads like this: under setting [7], active: -0.183; under setting [8], inactive: -0.0123; under setting [9], active: -0.442; under setting [10], active: -0.142; under setting [11], active: -1.04; under setting [12], active: -0.863.
As for `CC[C@@]1(O)C(=O)OCc2c1cc1n(c2=O)Cc2cc3c(CN(C)C)c(O)ccc3nc2-1`, the “cell viability (log2)” value was active: -0.373 under setting [1]; active: -1.79 under setting [3]; active: -0.321 under setting [4]; active: -2.4 under setting [5]; active: -0.459 under setting [6]; active: -3.72 under setting [7]. The “cell viability (log2)” value was active: -0.844 under setting [8]; active: -4.21 under setting [9]; active: -1.11 under setting [10]; active: -4.26 under setting [11]; active: -1.44 under setting [12].
With `CC1CCCC(C)N1NC(=O)c1ccc(Cl)c(S(N)(=O)=O)c1` (centres undefined), the “cell viability (log2)” value reads like this: under setting [17], inactive: 0.125; under setting [18], inactive: 0.128; under setting [19], inactive: 0.102; under setting [20], inactive: 0.0215.
The like results for `Clc1cc(Cl)c(OCC#CI)cc1Cl` were, in that order, inactive: 0.0905, inactive: -0.0049, inactive: 0.0878 and inactive: 0.142.
